Experimental data published in article PMC3481835.

Substrate: C[C@]12CCC(=O)C=C1CC[C@@H]1[C@@H]2[C@@H](O)C[C@@]2(C)[C@H]1CC[C@]2(O)C(=O)CO
Assay: cells, lysate or membranes named
Conditions: other: CYP3A4 supersomes, pH 7.4

B1: CYP3A4 (Homo sapiens) (protein)
chain: MALIPDLAMETWLLLAVSLVLLYLYGTHSHGLFKKLGIPGPTPLPFLGNILSYHKGFCMFDMECHKKYGKVWGFYDGQQPVLAITDPDMIKTVLVKECYSVFTNRRPFGPVGFMKSAISIAEDEEWKRLRSLLSPTFTSGKLKEMVPIIAQYGDVLVRNLRREAETGKPVTLKDVFGAYSMDVITSTSFGVNIDSLNNPQDPFVENTKKLLRFDFLDPFFLSITVFPFLIPILEVLNICVFPREVTNFLRKSVKRMKESRLEDTQKHRVDFLQLMIDSQNSKETESHKALSDLELVAQSIIFIFAGYETTSSVLSFIMYELATHPDVQQKLQEEIDAVLPNKAPPTYDTVLQMEYLDMVVNETLRLFPIAMRLERVCKKDVEINGMFIPKGVVVMIPSYALHRDPKYWTEPEKFLPERFSKKNKDNIDPYIYTPFGSGPRNCIGMRFALMNMKLALIRVLQNFSFKPCKETQIPLKLSLGGLLQPEKPVVLKVESRDGTVSGA
  Km: 148 ± 25 µM
  kcat: 27±2 pmol/min/pmol CYP3A4
